What all share (assay): BLI (Octet), his-tagged pIgR on anti-His biosensor
In one assay the target is CV19B283 (human).
Another assay concerns the target T1, CV19B308 (human, UniProt P01857 partial chain = IgG part).
T1 construct: domain: Fc

For the next assay, the target named is T2, CV19B301 (human, UniProt P01857 partial chain = IgG part).
T2 construct: domain: Fc

B1: polymeric immunoglobulin receptor (pIgR), his-tagged (receptor)
chain: not shown
For the molecule B1, in the assay with CV19B283, binding was characterised by a dissociation constant (Kd) of 7.8 nM. Further, the koff (usually a measure of how fast the partners let go of each other) came to 1.44e-06 s⁻¹ with CV19B308 and 5.93e-05 s⁻¹ with CV19B301.

The record behind these values is US20220033522A1 (Janssen / Centocor, published 2022).
